The other results are listed elsewhere or left out.

This test has as its system PF3D7_0420300 AP2 domain 1 (GST-tagged). The test can be described thus: gcPBM binding intensity (ln(normalized median fluorescence intensity)); higher = stronger DNA binding. The method in brief:
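Each value is the highest Masliner-normalised natural-log median intensity across replicate spots of either orientation of a probe. The probes were primer-extended double-stranded 36-bp intergenic genomic sequences on an Agilent 4 × 180k array, alongside negative controls, exposed for 1 h to GST-tagged P. falciparum DNA-binding domains expressed in E. coli. Bound protein was picked up with Alexa488 anti-GST antibody and scanned at 488 nm.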
As for “ACGAAGATTTATCTTGCACACGCAAAAAAAAAAAAA [CACACA_site7933]”, the “gcPBM binding intensity (ln)” value stood at 8.94.

As for “AACATTTCCTTTCTGTGTACATATAAACCCATCTAT [XGTACX_site2071]”, the “gcPBM binding intensity (ln)” value is 9.4. On to “ATTATATTTTGTAAATGTACATTTATATATTTTGTA [XGTACX_site1226]”, for which the “gcPBM binding intensity (ln)” value was determined as 9.33. With “AAAAAAAAAAAAAAAGCATGCACATATTATTTTTTT [TGCATGCA_site416]” the figure was 9.09; with “ATTCATAAACGTGTGTTAATATGAATTTAAACATAA [XGTACX_negctrl_site213]”, 9.16. To “AATTAGATGGATAAATGTACATAATGTGAATATATT [XGTACX_site86]” belongs 9.49; to “ATCCACTTTTTGAAGACACACACAAAAAAAAAAAAA [CACACA_site8818]”, 9.36; to “TAAAAATAATTTGCATGTACATAGGTCGATGTATTT [XGTACX_site1357]”, 9.27. To “TGTAAATTATAACGTGCACACATATTTAAAATGAAA [CACACA_site8915]” belongs 9.33.

As for “ATATAGAAAATGCATACACACTTTATAAATATATTT [CACACA_site6553]”, the “gcPBM binding intensity (ln)” value was determined as 9.41. With “AGATATTTATTGAGTGCATGTTATAAAGGGAAAAAA [TGCATGCA_site88]” the figure was 9.32; with “TTCAAGCCCTTCTGCTTACACACAGTAATTATTGTG [CACACA_site2952]”, 9.58.

Consider TATTTTTATTATATGGTGCATATATACATACATATA, for which the “gcPBM binding intensity (ln)” value came to 9.19. With “AAGTGCATATTATTCACACATAATAATTGTATACCT [CACACA_site5965]” the figure was 9.34; with “ATATGATCATAAAACACACACACAAAAAAAAAAAAA [CACACA_site1806]”, 9.87. To “AAAAAAAAAAAACACACACACAATAGTATATAAATC [CACACA_site956]” belongs 10.3; to “TTTGTGTTTATAAATTGTACAAAGGTGCAAGAAGAA [XGTACX_site2159]”, 9.29; to “AAAAAAAAAAAAAACACACACACACCCATAAATATA [CACACA_site151]”, 9.88. Regarding “TTAAAATATACATAAACACACACAAAACGTTTAAGA [CACACA_site8267]”, the “gcPBM binding intensity (ln)” value came to 9.9. For the sequence “AATTTAAAATATATAGTACACACGTGAACACAAATA [CACACA_site416]”, the “gcPBM binding intensity (ln)” value turned out to be 9.48. With “TTTTTTTTTTTTTTTTTTTTCACATGTGTGGAAAAA [GTGCAC_negctrl_site352]” the figure was 8.45; with “AGGATATATAAGTATACACACATATTTATATTTATA [CACACA_site6239]”, 9.36; with “TAACAATAACTTTATACACACATAATATATATATAT [CACACA_site3543]”, 9.59. To “TGTATTTATAATAAAACACACATTTTTAATGTGCTC [CACACA_site4908]” belongs 9.12. To “CATATACTTCTGTGCACACGAATATTTTTCTTCTTC [CACACA_site1407]” belongs 9.46; to “TGTTGTCCTAATTCTACACACAATGGTTTATTAAAA [CACACA_site2648]”, 9.62. As for “TATACTCATATTTTTACACACATATTTTTTCATATA [CACACA_site5412]”, the “gcPBM binding intensity (ln)” value is 9.76. To “TTTTAACGTAAAACATTGATGATATAAAAAATAGGA [GTGCAC_negctrl_site540]” belongs 9.17. With “ATAAAATATATATATATAAAAATAAATACATAAATA [GTGCAC_negctrl_site157]” the figure was 9.4; with “CAAACAAACAGACACACACACACACCCAAAAATGAT [CACACA_site2430]”, 10.4; with “TCAATATTAAATTATTGTACATGTATGTATATATAT [XGTACX_site3861]”, 9.19. To “TTTTTTTTTTTTTTTTTACACACTTTATTCAAACAA [CACACA_site9360]” belongs 8.75; to “TTTATATAAATTTTTTGTACACAAGTAAAAACGCGT [XGTACX_site2459]”, 9.02.

With “ACACAAATAAATATAACATATATATTATATTATATT [CACACA_negctrl_site710]”, the “gcPBM binding intensity (ln)” value was 9.37. With “CAAATAAAAACAAAACGTACGAATAAATTATTGTTA [XGTACX_site5136]” the figure was 9.49; with “ATATCGTTATTTTTATGTACTAAAATATTTAATTAT [XGTACX_site3516]”, 9.37.

As for “TATTTGATCTAAAGAGCATGCAAAAACGAACAAGAT [TGCATGCA_site136]”, the “gcPBM binding intensity (ln)” value is 9.52. Turning to “CACATATAAATATTAACACACATAATGAATTATATA [CACACA_site2741]”, the “gcPBM binding intensity (ln)” value was 9.48. To ATATATAAAAATTAGGTGCATTAAATTAAAATATAT belongs 9.28; to AGCATATTATTTTAGGTGCACTTGAAATGTGTTAAC, 9.22. To “TTTAAATAAAATATTACACACTTAGAAAGATATATA [CACACA_site7684]” belongs 9.18; to “TTTTTTTTTTATTGTACATGCAAAAAATTCCACACA [TGCATGCA_site279]”, 8.97; to “TACACCCACCCACATACACACACATACACATATATA [CACACA_site8503]”, 10.2.

Regarding “AAAAAAAAAAATATATTAAAATAAAAAATATTAACA [GTGCAC_negctrl_site13]”, the “gcPBM binding intensity (ln)” value was 9.

For “CCACTTAAAATAAAAAGTACATACAGGTGTTATACA [XGTACX_site8124]”, the “gcPBM binding intensity (ln)” value turned out to be 9.19.

On to “TAATGAGGAAATACAGCACACGTTATTACACTTTTC [CACACA_site5399]”, for which the “gcPBM binding intensity (ln)” value worked out at 9.41. Take “AATAATGTTATAAATTGTACGTGTATTATTCATTAC [XGTACX_site894]”: the “gcPBM binding intensity (ln)” value stood at 9.38.

In the case of “AAATTGGTTCATCAATGTACATGTAAAATAAATCAA [XGTACX_site4795]”, the “gcPBM binding intensity (ln)” value is 9.28. With “TATATTTATCCATACAAGAAAAAAAAAAAAAAAATA [CACACA_negctrl_site1328]” the figure was 9.13; with “TTTTTTAATACATATGCATGTTCAAGTACGAAAAAA [TGCATGCA_site641]”, 8.8; with “TACGGGAAAGATAAGAAACACACGGAAAATTAGACG [CACACA_site1661]”, 9.88.

“TACGCAACCAAAAGTTGTACTAATTTTTTTTTTTTG [XGTACX_site7432]”: the “gcPBM binding intensity (ln)” value amounted to 9.12.

For the sequence “ATATATTTTATACATACACACATATAAATATTTTTT [CACACA_site7780]”, the “gcPBM binding intensity (ln)” value worked out at 9.44.

Take “GGAACAAATAATATCACACATATATATATATATATA [CACACA_site5670]”: the “gcPBM binding intensity (ln)” value was found to be 9.37. Regarding “TAATAAATATATTGAAGTACTTATAAAAAGCAATAT [XGTACX_site6262]”, the “gcPBM binding intensity (ln)” value is 9.03. With “TGTATATAATCGAGTGCACACACAAAAAAAAAGTGA [CACACA_site8417]” the figure was 9.76; with “TTCATGTCCTATTAATGTACTCTACACACATATAAG [XGTACX_site899]”, 9.66. To “AAAAAAAAAAAAAAAACACACACATATATATATATA [CACACA_site8571]” belongs 9.51.

Take “ATTTTATATACACTTTGTACTTATTTTATTCTTCTT [XGTACX_site4200]”: the “gcPBM binding intensity (ln)” value was 9.7. To “TTTATTTATTTTTGTTGTACACTTGTATATATTATT [XGTACX_site6486]” belongs 9.54; to “ATATATATATATAATACACACTAAAGTAACATAATA [CACACA_site5580]”, 9.76; to “TTGTAAGAAAGACACACACACACATATAAATATGTA [CACACA_site6516]”, 9.92. With “TATTTAAAATAATGTGCAAAAGAATAAATAAATAAA [TGCATGCA_negctrl_site194]” the figure was 9.49. “TTCATTTTCATATATTGTACAAAATTTTATAAGGTT [XGTACX_site4522]”: the “gcPBM binding intensity (ln)” value is 9.15.

In the case of “TATATAAGAACTTTTACACACATGAAAATGTAGATA [CACACA_site7711]”, the “gcPBM binding intensity (ln)” value turned out to be 9.4. With “TATATATATATATATACACACATACAGATATATATT [CACACA_site4629]” the figure was 9.51; with “ATATACACATATACATGTACAAATATATATACACAT [XGTACX_site2986]”, 9.43; with “CACTAAAAGAAACACACACACACACCCATATATATA [CACACA_site4151]”, 10.2.

As for “TTACTATTATTATTTTTTATTTTTATTTTATTTATT [TGCATGCA_negctrl_site269]”, the “gcPBM binding intensity (ln)” value was determined as 9.5. With TTAAAAGTAAGCAAAGTGCATATAACAAAAGTAAAG the figure was 9.4. In the case of “AATATAAAACTTTAGAGTACTTATCATTAAAATATA [XGTACX_site4509]”, the “gcPBM binding intensity (ln)” value stood at 8.99. For the sequence “TAAAATAAAAAAGTAGTACACACTTCACGATATTTT [CACACA_site3896]”, the “gcPBM binding intensity (ln)” value stood at 9.32. For the sequence “ATTAATAATGAAAAAAAACACACGGTACATTCAAAG [CACACA_site1302]”, the “gcPBM binding intensity (ln)” value was determined as 9.62.

As for “AAGAAAATGTATATATGTACATACAATCAAAAGAAG [XGTACX_site3454]”, the “gcPBM binding intensity (ln)” value amounted to 9.4. Consider “GAATATTCAACATAATGTACAAGTATTCATTTCTTT [XGTACX_site7860]”, for which the “gcPBM binding intensity (ln)” value is 9.18. With “CAAAAATAAAAGAAATGTACAAAAAATAATAAAAAA [XGTACX_site6597]” the figure was 9.43; with “AAAATTCATAAATACACACACGCACATATATATATA [CACACA_site4227]”, 9.88.

With “TAATAAACTTAAAAATGTACATATATTTATTATTAC [XGTACX_site4321]”, the “gcPBM binding intensity (ln)” value stood at 9.19. As to “AAATATATATTCATGTGTACACACAAAAAAAAATAA [XGTACX_site4552]”, the “gcPBM binding intensity (ln)” value amounted to 9.75. To “AAAAATTTTCAAGTGTGTACATATTTTCATTTAACA [XGTACX_site6186]” belongs 9.27; to “AAGAAAAAGTATCCTCTATCTTTATATAAACTATTA [TGCATGCA_negctrl_site2]”, 9.02.

With “TTTTTATTTAGCTAAGCATGCTAACGATGACACTTC [TGCATGCA_site79]”, the “gcPBM binding intensity (ln)” value was found to be 8.86.

For “TTTATACTTTTAAATTGTACTATAAAAAGGAATACA [XGTACX_site2537]”, the “gcPBM binding intensity (ln)” value came to 8.96. With “ATGTATATATTTTTATGTACATATTTTTAATTTATA [XGTACX_site2982]” the figure was 9.2; with “CATACATATACTTTGTGTACATATATATATTATATA [XGTACX_site97]”, 9.16; with “TAATAAAAAATTAAAAAAAATAAAAATAAAAATAAA [GTGCAC_negctrl_site78]”, 9.1. With “AACAATATGGATGTATGTACACATATAGAACGTTAT [XGTACX_site7142]” the figure was 9.64; with “TATGCATTTATGCATTGTACTTTTATAGATTCCACC [XGTACX_site7121]”, 8.84; with “TACAAAAAAAAAGAACGTACAAAAAATTTCAAAAAT [XGTACX_site5860]”, 9.51.

For the origin of these results see the supplement of paper PMC11417369.
